Five molecules from publication PMC8215545 can be followed below.

Amino acid sequences for entries named in this document (tags omitted).
UniProt O14543: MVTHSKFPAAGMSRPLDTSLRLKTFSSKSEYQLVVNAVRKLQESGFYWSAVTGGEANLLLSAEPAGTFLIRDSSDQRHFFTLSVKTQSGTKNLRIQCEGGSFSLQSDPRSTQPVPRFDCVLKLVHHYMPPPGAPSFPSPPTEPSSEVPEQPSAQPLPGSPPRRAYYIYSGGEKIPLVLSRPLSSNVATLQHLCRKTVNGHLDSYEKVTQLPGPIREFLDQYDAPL

Where two headings read alike, the source gives them in different places. Results are given in words; binding and its absence hold for the method and conditions named. In cells and extracts the contact can be indirect. Some entries that bind do so weakly or less than the wild type. For some assays here: Sequences can lack the tags named with a protein.

Experiment [1] deals with T1, FLAG-ASB6 wild type (human) (UniProt Q9NWX5).
T1 sequence: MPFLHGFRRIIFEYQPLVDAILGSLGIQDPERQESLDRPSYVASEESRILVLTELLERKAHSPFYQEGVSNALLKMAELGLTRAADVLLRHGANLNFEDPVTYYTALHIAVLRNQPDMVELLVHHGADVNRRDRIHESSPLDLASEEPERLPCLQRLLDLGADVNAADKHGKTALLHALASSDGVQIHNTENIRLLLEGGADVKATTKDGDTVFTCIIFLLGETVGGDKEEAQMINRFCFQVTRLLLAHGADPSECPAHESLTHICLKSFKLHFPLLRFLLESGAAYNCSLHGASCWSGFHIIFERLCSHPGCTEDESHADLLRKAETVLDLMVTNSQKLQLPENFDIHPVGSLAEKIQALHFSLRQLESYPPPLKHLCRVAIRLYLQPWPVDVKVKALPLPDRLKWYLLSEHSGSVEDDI
Put plainly: co-IP; HEK293T cells transfected with the indicated plasmids, treated with 10 μM MG132 for 10 h; lysis in EBC buffer; anti-FLAG M2 or anti-HA agarose beads 3 h, washed five times with NETN buffer; immunoblot. (A western blot detects proteins with antibodies after separation by electrophoresis.)

The target in experiment [2] is SOCS3 (UniProt O14543). The experiment is described as above.
The target of experiment [3] is FLAG-EloB (Elongin B) (human) (UniProt Q15370). Described as above.
Experiment [4] has as its target T2, SOCS6 (UniProt O14544).
T2 sequence: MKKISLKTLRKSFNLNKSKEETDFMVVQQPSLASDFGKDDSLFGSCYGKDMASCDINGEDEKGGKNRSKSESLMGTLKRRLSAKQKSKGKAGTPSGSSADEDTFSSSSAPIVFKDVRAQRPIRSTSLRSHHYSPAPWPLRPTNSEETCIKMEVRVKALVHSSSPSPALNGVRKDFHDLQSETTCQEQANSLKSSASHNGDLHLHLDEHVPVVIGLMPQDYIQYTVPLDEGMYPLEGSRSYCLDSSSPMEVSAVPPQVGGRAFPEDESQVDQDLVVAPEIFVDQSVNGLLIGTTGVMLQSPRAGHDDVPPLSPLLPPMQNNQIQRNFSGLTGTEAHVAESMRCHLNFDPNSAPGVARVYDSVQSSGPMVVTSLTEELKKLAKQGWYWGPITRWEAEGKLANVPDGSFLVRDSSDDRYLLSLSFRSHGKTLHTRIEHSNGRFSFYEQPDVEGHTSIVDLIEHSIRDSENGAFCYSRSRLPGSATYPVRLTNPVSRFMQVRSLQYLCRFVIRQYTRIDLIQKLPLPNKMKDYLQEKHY
The description is as above.

Experiment [5] has as its target FLAG-EloC (Elongin C) (human) (UniProt Q15369). The description is as above.
For experiment [6], the target named is T3, endogenous ASB6 (Huh1 cells) (human (endogenous in Huh1)) (UniProt Q9NWX5).
T3 sequence: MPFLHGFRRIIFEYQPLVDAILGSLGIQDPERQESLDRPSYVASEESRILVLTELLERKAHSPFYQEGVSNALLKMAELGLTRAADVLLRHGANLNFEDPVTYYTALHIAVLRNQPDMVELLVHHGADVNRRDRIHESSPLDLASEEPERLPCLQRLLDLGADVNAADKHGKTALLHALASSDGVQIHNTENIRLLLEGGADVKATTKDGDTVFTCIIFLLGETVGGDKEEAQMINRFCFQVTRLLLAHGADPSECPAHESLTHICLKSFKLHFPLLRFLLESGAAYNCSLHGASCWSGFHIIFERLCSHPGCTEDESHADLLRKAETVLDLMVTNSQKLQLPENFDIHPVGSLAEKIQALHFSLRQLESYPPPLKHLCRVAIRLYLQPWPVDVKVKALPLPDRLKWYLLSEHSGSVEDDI
Put plainly: co-IP; endogenous proteins; Huh1 cells treated with 10 μM MG132 for 10 h, whole-cell lysate; ASB6 antibody for IP, Rabbit IgG as negative control; immunoblot.

Experiment [7] concerns the target HA-CUL5 (Cullin5) (human) (UniProt Q93034). Put plainly: co-IP; HEK293T cells transfected with the indicated plasmids, treated with 10 μM MG132 for 10 h; lysis in EBC buffer; anti-FLAG M2 or anti-HA agarose beads 3 h, washed five times with NETN buffer; immunoblot.
The target of experiment [8] is FLAG-EloB (Elongin B) (human) (UniProt Q15370). Described as above. The source holds these as a separate data set.
In experiment [9] the target is FLAG-EloC (Elongin C) (human) (UniProt Q15369). The experiment is described as above. This is another data set of the same source.

Consider “HA-CUL5 (Cullin5) (from UniProt Q93034 1-780)”, for which the binding result in [1] was “binds”.
For “HA-p62 (p62/SQSTM1, sequestosome-1, 440 amino acid isoform) (from UniProt Q13501 1-440)”, the binding entry in [2] is recorded as “no binding”; in experiment [1], “binds”; in experiment [3], “binds”; in experiment [4], “no binding”; in experiment [5] it was “binds”.
On to “endogenous p62/SQSTM1 (Huh1 cells) (from UniProt Q13501 1-440)”, for which the binding entry in experiment [6] was “binds”.
Turning to “p62S (shorter p62 isoform, 356 aa, lacks the N-terminal PB1 domain) (from UniProt Q13501-2 1-356)”, the binding entry in [7] and in experiment [1] was “binds” in each case.

B1: HA-ASB6 (protein, UniProt Q9NWX5 1-421)
chain: MPFLHGFRRIIFEYQPLVDAILGSLGIQDPERQESLDRPSYVASEESRILVLTELLERKAHSPFYQEGVSNALLKMAELGLTRAADVLLRHGANLNFEDPVTYYTALHIAVLRNQPDMVELLVHHGADVNRRDRIHESSPLDLASEEPERLPCLQRLLDLGADVNAADKHGKTALLHALASSDGVQIHNTENIRLLLEGGADVKATTKDGDTVFTCIIFLLGETVGGDKEEAQMINRFCFQVTRLLLAHGADPSECPAHESLTHICLKSFKLHFPLLRFLLESGAAYNCSLHGASCWSGFHIIFERLCSHPGCTEDESHADLLRKAETVLDLMVTNSQKLQLPENFDIHPVGSLAEKIQALHFSLRQLESYPPPLKHLCRVAIRLYLQPWPVDVKVKALPLPDRLKWYLLSEHSGSVEDDI
B1: the binding result in experiment [8] and in [9] was “binds” in each case.
